Results as given in patent US20230287598A1.

Key:
CXCR1 [1] = target: CXCR1 (UniProt P25024); experiment: flow cytometry, 10 nM IgG, 2 ug/ml heparin sulfate, CXCR1-U2OS / parental U2OS
CXCR1 [2] = target: CXCR1 (UniProt P25024); experiment: flow cytometry, CXCR1-U2OS / parental U2OS

Sequence of UniProt P25024 (P25024 whole entry): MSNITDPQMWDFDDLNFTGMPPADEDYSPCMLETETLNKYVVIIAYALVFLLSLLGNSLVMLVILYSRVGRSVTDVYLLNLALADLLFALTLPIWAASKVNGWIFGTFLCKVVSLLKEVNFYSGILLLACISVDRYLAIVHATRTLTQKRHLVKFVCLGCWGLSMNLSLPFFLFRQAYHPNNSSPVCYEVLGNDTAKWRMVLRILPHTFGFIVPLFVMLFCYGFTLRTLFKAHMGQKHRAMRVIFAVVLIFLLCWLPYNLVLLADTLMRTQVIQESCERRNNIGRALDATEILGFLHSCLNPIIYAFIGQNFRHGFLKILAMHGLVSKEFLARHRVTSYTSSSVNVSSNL

B1: VH4-34+CDR3-IL8_CDR1 Cow_CDR2 Cow / V1-51 IgG (antibody, from a related filing, part only)
heavy: QVQLQQWGAGLLKPSETLSLTCTASGFSLSDKAVGWIRQPPGKGLEWLGSIDTGGNTGYNPSLKSRVTISVDTSKNQFSLKLSSVTAADTAVYYCTSVHQETKKYQSPRSAKELRCQCIKTYSKPFHPKFIKELRVIESGPHCANTEIIVKLSDGRELCLDPKENWVQRVVEKFLKRAENSGSGSYTYNYEWHVDVWGQGLLVTVSS[omitted - human IgG1 constant region]
light: QSVLTQPPSVSAAPGQKVTISCSGSSSNIGNNYVSWYQQLPGTAPKLLIYDNNKRPSGIPDRFSGSKSGTSATLGITGLQTGDEADYYCASAEDSSSNAVFGSGTTLTVLGQPKAAPSVTLFPPSSEELQANKATLVCLISDFYPGAVTVAWKADSSPVKAGVETTTPSKQSNNKYAASSYLSLTPEQWKSHRSYSCQVTHEGSTVEKTVAPTECS
CXCR1 specificity (CXCR1/parental ratio) (CXCR1 [1]): 11.1 | CXCR1/Parental Ratio (CXCR1 [2]): 3.1
